The target of test [1] is T1, Recombinant Human IL-13 (human, UniProt P35225 partial chain, limits assumed). Kind of test: direct bind ELISA. On the procedure:
Enzyme Linked Immunosorbent Assays to screen for antibodies that bind a desired target antigen were performed as follows. High bind ELISA plates (Corning Costar # 3369, Acton, Mass.) were coated with 100 μL/well of 10 μg/ml of desired target antigen (R&D Systems, Minneapolis, Minn.) or desired target antigen extra-cellular domain/FC fusion protein (R&D Systems, Minneapolis, Minn.) or monoclonal mouse anti-polyhistidine antibody (R&D Systems # MAB050, Minneapolis, Minn.) in phosphate buffered saline (10×PBS, Abbott Bioresearch Center, Media Prep# MPS-073, Worcester, Mass.) overnight at 4° C. Plates were washed four times with PBS containing 0.02% Tween 20. Plates were blocked by the addition of 300 μL/well blocking solution (non-fat dry milk powder, various retail suppliers, diluted to 2% in PBS) for ½ hour at room temperature. Plates were washed four times after blocking with PBS containing 0.02% Tween 20.
Plates were washed 4 times with PBS containing 0.02% Tween 20.
One hundred microliters of enhanced TMB solution (Neogen Corp. #308177, K Blue, Lexington, Ky.) was added to each well and incubated for 10 minutes at room temperature. The reaction was stopped by the addition of 50 μL 1N sulphuric acid. Plates were read spectrophotometrically at a wavelength of 450 nm.

Test [2] concerns the target T1, Recombinant Human IL-13. Kind of test: cell-based or functional assay.
Test [3] concerns the target T1, Recombinant Human IL-13. Kind of test: Biacore SPR. Here is the method: The BIACORE assay (Biacore, Inc, Piscataway, N.J.) determines the affinity of antibodies or DVD-Ig with kinetic measurements of on-rate and off-rate constants. Binding of antibodies or DVD-Ig to a target antigen (for example, a purified recombinant target antigen) is determined by surface plasmon resonance-based measurements with a BiacoreR 1000 or 3000 instrument (Biacore® AB, Uppsala, Sweden) using running HBS-EP (10 mM HEPES [pH 7.4], 150 mM NaCl, 3 mM EDTA, and 0.005% surfactant P20) at 25° C. All chemicals are obtained from Biacore® AB (Uppsala, Sweden) or otherwise from a different source as described in the text. For example, approximately 5000 RU of goat anti-mouse IgG, (Fcγ), fragment specific polyclonal antibody (Pierce Biotechnology Inc, Rockford, Ill.) diluted in 10 mM sodium acetate (pH 4.5) is directly immobilized across a CM5 research grade biosensor chip using a standard amine coupling kit according to manufacturer's instructions and procedures at 25 μg/ml. Unreacted moieties on the biosensor surface are blocked with ethanolamine. Modified carboxymethyl dextran surface in flowcell 2 and 4 is used as a reaction surface. Unmodified carboxymethyl dextran without goat anti-mouse IgG in flow cell 1 and 3 is used as the reference surface. For kinetic analysis, rate equations derived from the 1:1 Langmuir binding model are fitted simultaneously to association and dissociation phases of all eight injections (using global fit analysis) with the use of Biaevaluation 4.0.1 software. Purified antibodies or DVD-Ig are diluted in HEPES-buffered saline for capture across goat anti-mouse IgG specific reaction surfaces. […] The association and dissociation rate constants, kₒₙ (M⁻¹s⁻¹) and koff (s⁻¹) are determined under a continuous flow rate of 25 μl/min. […] The equilibrium dissociation constant (M) of the reaction between antibodies or DVD-Igs and the target antigen is then calculated from the kinetic rate constants by the following formula: KD=koff/kₒₙ. Binding is recorded as a function of time and kinetic rate constants are calculated.

T1 sequence (P35225 35-146 limits assumed): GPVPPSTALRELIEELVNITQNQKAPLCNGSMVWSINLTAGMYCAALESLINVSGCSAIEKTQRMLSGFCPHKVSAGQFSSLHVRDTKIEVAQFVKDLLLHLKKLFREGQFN

B1: DVD286 (bispecific antibody, human IgG1, kappa)
heavy: EVTLRESGPGLVKPTQTLTLTCTLYGFSLSTSDMGVDWIRQPPGKGLEWLAHIWWDDVKRYNPALKSRLTISKDTSKNQVVLKLTSVDPVDTATYYCARTVSSGYIYYAMDYWGQGTLVTVSSASTKGPQVQLQQSGAELMKPGASVKLSCKATGYTFTGSWIEWIKQRPGHGLEWIGQILPGSGSAYYNEKFKGKATFTADTSSKTVYIQLISLTTEDSAIYYCAREDNYGSSSLAYWGQGTLLTVSA[left out - human IgG1 constant region]
light: DIQMTQSPSSLSASVGDRVTISCRASQDIRNYLNWYQQKPGKAPKLLIFYTSKLHSGVPSRFSGSGSGTDYTLTISSLQPEDIATYYCQQGLTPPLTFGGGTKVEIKRTVAAPDILLTQSPAILSVSPGERVSFS[left out - about 80 residues][left out - about 120 residues]
notes: outer AB051, inner AB056; vectors V1, V2
Consider B1, for which the EC50 in test [1] is 5.57 nM. Also, the “IL-13 Neutralization Assay EC50 (A549 cells, hTARC)” value in test [2] is 0.2 nM. Also, in test [3], the Kd was determined as 0.133 nM, the koff is 0.000177 s⁻¹ and the kon was determined as 1.33e+06 M⁻¹ s⁻¹.

These data come from patent US20090311253A1 (AbbVie / Abbott, published 2009).
